Experimental data as given in US20260193238A1, “PHARMACEUTICAL COMPOUNDS AS PARP7 AND/OR PARP1 INHIBITORS” (Duke Street Bio Limited, priority 2022, published 2026).

The compounds below were run against T1, PARP7 (amino acids 456-657) (Homo sapiens, UniProt Q7Z3E1) (assay: PARP7 biochemical DELFIA assay (auto-MARylation)). Conditions: Table 1.
T1 sequence (Q7Z3E1 456-657): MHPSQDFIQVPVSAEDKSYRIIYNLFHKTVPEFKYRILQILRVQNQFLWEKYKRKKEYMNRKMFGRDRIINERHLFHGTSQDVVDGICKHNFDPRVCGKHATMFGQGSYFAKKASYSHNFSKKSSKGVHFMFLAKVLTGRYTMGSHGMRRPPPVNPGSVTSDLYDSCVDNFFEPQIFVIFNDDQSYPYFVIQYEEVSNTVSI

Row | IC50 [µM] | Structure (SMILES)
1 | 0.01 to 0.1 | O=C(CCN1CCCC(c2cc(C(F)(F)F)c(=O)[nH]n2)C1)N1CCN(c2ncc(C(F)(F)F)s2)CC1 (single isomer, unassigned) [Compound 27b]
2 | 1 to 10 | CNC(=O)c1ccc(N2CCN(C(=O)CCN3CCCC(c4cc(C(F)(F)F)c(=O)[nH]n4)C3)CC2)nc1 (single isomer, unassigned) [Compound 28a]
3 | 0.1 to 1 | O=C(CN1CCN(c2ncc(C(F)(F)F)cn2)CC1)N1CCCC1c1cc(C(F)(F)F)c(=O)[nH]n1 (single isomer, unassigned) [Compound 32a]
4 | > 10 | O=C(CN1CCN(c2ncc(C(F)(F)F)cn2)CC1)N1CCCC1c1cc(C(F)(F)F)c(=O)[nH]n1 (single isomer, unassigned) [Compound 32b]

Same assay, conditions: Table 1A

Row | IC50 [µM] | Structure (SMILES)
5 | 0.1 to 1 | O=C(CN1CCCC1c1cc(C(F)(F)F)c(=O)[nH]n1)NC1CCN(c2ncc(C(F)(F)F)cn2)CC1 (single isomer, unassigned) [Compound 33b]
6 | 1 to 10 | CN(C(=O)CN1CCCC1c1cc(C(F)(F)F)c(=O)[nH]n1)C1CCN(c2ncc(C(F)(F)F)cn2)CC1 (single isomer, unassigned) [Compound 34b]
7 | ≤ 0.01 | O=C(CN1CCCC1c1cc(C(F)(F)F)c(=O)[nH]n1)N1CCN(c2ncc(Cl)cn2)CC1 (single isomer, unassigned) [Compound 35a]
8 | 0.1 to 1 | O=C(CN1CCCC1c1cc(C(F)(F)F)c(=O)[nH]n1)N1CCN(c2ncc(Cl)cn2)CC1 (single isomer, unassigned) [Compound 35b]
9 | ≤ 0.01 | N#Cc1cnc(N2CCN(C(=O)CN3CCCC3c3cc(C(F)(F)F)c(=O)[nH]n3)CC2)nc1 (single isomer, unassigned) [Compound 36a]
10 | 1 to 10 | CNC(=O)c1ccc(N2CCN(C(=O)CN3CCCC3c3cc(C(F)(F)F)c(=O)[nH]n3)CC2)cn1 (single isomer, unassigned) [Compound 37b]
11 | ≤ 0.01 | CCc1cc(C2CCCN2CC(=O)N2CCN(c3ncc(C(F)(F)F)cn3)CC2)n[nH]c1=O (single isomer, unassigned) [Compound 40a]
12 | 1 to 10 | CCc1cc(C2CCCN2CC(=O)N2CCN(c3ncc(C(F)(F)F)cn3)CC2)n[nH]c1=O (single isomer, unassigned) [Compound 40b]
13 | ≤ 0.01 | O=C(CN1CCCC1c1cc(C(F)(F)F)c(=O)[nH]n1)N1CCN(c2ccc(Cl)cn2)CC1 (single isomer, unassigned) [Compound 41a]
14 | 1 to 10 | O=C(CN1CCCC1c1cc(C(F)(F)F)c(=O)[nH]n1)N1CCN(c2ccc(Cl)cn2)CC1 (single isomer, unassigned) [Compound 41b]
15 | 0.1 to 1 | O=C(CN1CCCC1c1cc(C(F)(F)F)c(=O)[nH]n1)N1CCN(c2ccc(C(F)(F)F)cn2)CC1 (single isomer, unassigned) [Compound 42a]
16 | ≤ 0.01 | O=C(CN1CCCC1c1cc(C(F)(F)F)c(=O)[nH]n1)N1CCN(c2ccc(C(F)(F)F)cn2)CC1 (single isomer, unassigned) [Compound 42b]
17 | ≤ 0.01 | O=C(CN1CCCC1c1cc(C(F)(F)F)c(=O)[nH]n1)N1CCN(c2ncc(F)cn2)CC1 (single isomer, unassigned) [Compound 43a]
18 | 1 to 10 | O=C(CN1CCCC1c1cc(C(F)(F)F)c(=O)[nH]n1)N1CCN(c2ncc(F)cn2)CC1 (single isomer, unassigned) [Compound 43b]
19 | ≤ 0.01 | O=C(CN1CCCC1c1cc(C(F)(F)F)c(=O)[nH]n1)N1CCN(c2cnc(C(F)(F)F)cn2)CC1 (single isomer, unassigned) [Compound 45a]
20 | ≤ 0.01 | O=C(CN1CCCC1c1cc(C(F)(F)F)c(=O)[nH]n1)N1CCN(c2ccc(F)cn2)CC1 (single isomer, unassigned) [Compound 46a]
21 | 1 to 10 | O=C(CN1CCCC1c1cc(C(F)(F)F)c(=O)[nH]n1)N1CCN(c2ccc(F)cn2)CC1 (single isomer, unassigned) [Compound 46b]
22 | ≤ 0.01 | CNC(=O)c1cnc(N2CCN(C(=O)CN3CCCC3c3cc(C(F)(F)F)c(=O)[nH]n3)CC2)cn1 (single isomer, unassigned) [Compound 54a]
